Test results: PubChem BioAssay AID686970 (National Center for Advancing Translational Sciences (NCATS), 2013)
The campaign covered roughly 360,000 compounds. About 6,000 (1.7%) were called active. Inconclusive means that the source gave no clear call. Such entries were picked first, then a sample of the others. Calls follow the shape of the dose curve; as a rule, active = well fitted cell-killing curve with a large enough effect; inconclusive = small, poorly fitted or top-dose-only effect, or effect the other way; inactive = flat fitted curve, though single readings scatter. No potency is given beside an inconclusive call; the fits are too rough.

Assay: qHTS for induction of synthetic lethality in tumor cells producing 2HG: qHTS for the HT-1080-NT fibrosarcoma cell line;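 also: NT is the 2HG producing partner of a matched IDH1 knockdown line; nearly all actives have a fitted effect of over 55% in size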;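 as to activity, negative = less viability: 0% = DMSO-treated cells and -100% = media-only wells without cells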
Conditions: HT-1080-NT fibrosarcoma viability, CellTiter-Glo ATP luminescence, 48 h; activity, negative = less viability: at 46.1 µM (top of the series) unless noted
How it was run: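 Luminescent CellTiter-Glo readout after 48 hours of compound exposure at 37 degrees C defined viability of HT-1080-NT cells. Activity was normalized to DMSO wells and cell-free media wells; concentration-response curves were fitted and assigned curve classes.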
Potency is read from the fitted curve at half-maximal effect; tags tell the direction and shape of the fitted curve.

Q: Which Potency does the source give for CCN(CC)c1ccc(NC(=O)C2=CCN(S(=O)(=O)c3ccc(F)cc3)CC2)c(C)c1 here?
A: Its Potency is “inactive”.

Q: Which Potency does the source give for [O-]/[N+](=C\c1ccccc1)[C@@H]1CCCC[C@@H]1/[N+]([O-])=C/c1ccccc1 here?
A: The Potency was inconclusive [rising, full curve].

Q: For Cc1ccc(C)c(-n2nnnc2Sc2nnnn2-c2ccccc2)c1, which Potency is on record?
A: The Potency was inconclusive [cytotoxic, single point].

Q: Which Potency does the source give for Cc1ccc2c(C)c(C(=O)Nc3cccnc3)oc2c1 here?
A: Its Potency is inconclusive [cytotoxic, single point].

Q: With C/C(N)=C(/C#N)C(=O)CSc1nnc(SCc2ccc(Cl)cc2)s1 as the molecule, how does the Potency read?
A: Its Potency is “inactive”.

Q: With O=C(Nc1ccc2c(c1)OCCO2)c1cc(-c2ccccn2)nc2ccc(Br)cc12 as the molecule, how does the Potency read?
A: The Potency was “inactive”.

Q: Which Potency does the source give for CC1CCCCC1NC(=O)/C(C#N)=C/c1ccccc1F (centres undefined) here?
A: Its Potency is inconclusive [cytotoxic, full curve].

Q: Which activity, negative = less viability does the source give for O=C1Nc2ccccc2Oc2cc([N+](=O)[O-])ccc21 here?
A: Its activity, negative = less viability is inconclusive: -20.4% [cytotoxic].

Q: With Cc1ccc(-c2nnc(N3CCCCC3)c3ccccc23)cc1S(=O)(=O)N1CCN(C)CC1 as the molecule, how does the Potency read?
A: Its Potency is inconclusive [cytotoxic, single point].

Q: For Cc1cc(NC(=O)CS(=O)(=O)c2cn(Cc3cccc(Br)c3)c3ccccc23)no1, which Potency is on record?
A: The Potency was inconclusive [cytotoxic, single point].

Q: For Cc1nnc(Sc2c(-c3ccccc3)c3ccc(Cl)cc3[nH]c2=O)s1, which Potency is on record?
A: The Potency was inconclusive [cytotoxic, single point].

Q: Which Potency does the source give for CSc1ccccc1NC(=S)NC1CCCCC1 here?
A: The Potency was inconclusive [rising, single point].

Q: Which Potency does the source give for COC(/C(=N/O)c1ccc(Cl)cc1)c1ccccc1 (centres undefined) here?
A: Its Potency is inconclusive [cytotoxic, partial curve].

Q: Which Potency does the source give for COc1ccc(N2C(=O)C3C(C2=O)C(C(=O)c2ccc(Cl)cc2)N2CCCC32)cc1 (centres undefined) here?
A: The Potency was active: 13 µM.

Q: With N#C/C(=C\c1cn(CCOc2ccccc2)c2ccccc12)C(=O)NCc1ccco1 as the molecule, how does the Potency read?
A: The Potency was inconclusive [cytotoxic, single point].

Q: With CC1CCCN(CCOCCOc2ccc(Cl)cc2Br)C1 (centres undefined) as the molecule, how does the Potency read?
A: The Potency was active: 22.4 µM.

Q: Which activity, negative = less viability does the source give for Nc1nc(-c2cc(O)ccc2[N+](=O)[O-])cc(-c2ccccc2)c1[N+](=O)[O-] here?
A: The activity, negative = less viability was inconclusive: 25.1%.

Q: For Nn1c(SCC(=O)N2CCCc3ccccc32)nncc1=O, which Potency is on record?
A: The Potency was “inactive”.

Q: Which Potency does the source give for COc1ccc2cc(C(=O)/C=C/c3cc(OC)c(O)c(OC)c3)ccc2c1 here?
A: The Potency was active: 20.6 µM.

Q: For COc1ccc(-n2c(=O)/c(=C\c3cccs3)s/c2=C(/C#N)C(=O)N2CCN(C)CC2)cc1, which Potency is on record?
A: Its Potency is inconclusive [cytotoxic, single point].

Q: Which Potency does the source give for Nc1cccc(-c2nc3cc(S(=O)(=O)c4ccc5oc(-c6cccc(N)c6)nc5c4)ccc3o2)c1 here?
A: The Potency was inconclusive [cytotoxic, partial curve, poor fit].

Q: With c1ccc(-c2noc(-c3cccs3)n2)nc1 as the molecule, how does the Potency read?
A: Its Potency is inconclusive [cytotoxic, single point].

Q: For COc1ccc(/C=C/c2nc3ccccc3n2C)cc1, which Potency is on record?
A: The Potency was active: 5.17 µM.

Q: Which Potency does the source give for O=C(NNc1ncnc2sccc12)c1ccc(Cl)cc1 here?
A: Its Potency is inconclusive [cytotoxic, single point].

Q: With O=c1c2cn[nH]c2nc(SCc2ccc3c(c2)OCCO3)n1-c1ccccc1 as the molecule, how does the Potency read?
A: Its Potency is inconclusive [cytotoxic, single point].

Q: For O=C(c1cc(-c2ccc(Cl)s2)nc2ccccc12)N1CCOCC1, which activity, negative = less viability is on record?
A: The activity, negative = less viability was inconclusive: -30.1% [cytotoxic].

Q: With O=C(Nc1ccc(N2CCOCC2)cc1)C1CC1 as the molecule, how does the activity, negative = less viability read?
A: The activity, negative = less viability was inconclusive: 33.2%.

Q: For O=C(Cc1ccc(Cl)cc1)Nc1ccc(N2CCN(C(=O)c3ccco3)CC2)c(Cl)c1, which Potency is on record?
A: Its Potency is inconclusive [cytotoxic, single point].

Q: Which Potency does the source give for N#Cc1ccc(CSc2nnc(-c3ccncc3)n2CCc2ccccc2)cc1 here?
A: The Potency was active: 23.1 µM.

Q: Which Potency does the source give for Cc1ccc(NC(=O)Nc2nnc(Cc3ccc(F)cc3)s2)cc1 here?
A: Its Potency is inconclusive [cytotoxic, full curve].

Q: For OC(c1cc(C(F)(F)F)nc2c(C(F)(F)F)cccc12)C1CCCCN1 (centres undefined), which Potency is on record?
A: The Potency was active: 13 µM.

Q: Which Potency does the source give for O=c1[nH]c(=S)[nH]c2c1C(c1cccc(C(F)(F)F)c1)OC(CCc1ccccc1)C2 (centres undefined) here?
A: Its Potency is inconclusive [cytotoxic, single point].

Q: For Cc1cc(=O)n2[nH]c(SCc3c(F)cccc3Cl)nc2n1, which Potency is on record?
A: Its Potency is “inactive”.

Q: With CN(CCOc1ccc(Cl)cc1)C(=O)c1cccc(S(=O)(=O)N2CCN(Cc3ccccc3)CC2)c1 as the molecule, how does the activity, negative = less viability read?
A: Its activity, negative = less viability is inconclusive: -32.8% [cytotoxic].

Q: Which activity, negative = less viability does the source give for CCOc1ccc(NC(=O)CN(c2ccc([N+](=O)[O-])cc2)S(=O)(=O)c2ccccc2)cc1 here?
A: The activity, negative = less viability was inconclusive: -28.4% [cytotoxic].

Q: Which Potency does the source give for COc1cccc(CNC(=O)c2nnn(CC(=O)Nc3cc(Cl)ccc3C)c2N)c1 here?
A: The Potency was inconclusive [cytotoxic, partial curve].

Q: Which Potency does the source give for COC(=O)c1ccc(N=NN2CCCCC2)cc1 here?
A: Its Potency is inconclusive [rising, full curve, poor fit].

Q: For c1ccc(C[n+]2cccc3c4ccccc4ccc32)cc1, which Potency is on record?
A: The Potency was inconclusive [cytotoxic, single point].

Q: For COc1ccc(OC)c(S(=O)(=O)NC(=O)C2(C)CCN2C(=O)CC2CCCC2)c1 (centres undefined), which Potency is on record?
A: The Potency was “inactive”.

Q: Which Potency does the source give for COC(=O)COc1cc(OCC(=O)OC)c2c(C)c(Cl)c(=O)oc2c1 here?
A: Its Potency is “inactive”.

Q: With CC(C)(CNC(=S)NCCc1ccccc1)CNC(=S)NCCc1ccccc1 as the molecule, how does the Potency read?
A: Its Potency is inconclusive [cytotoxic, single point].

Q: With Oc1ccc(-c2csc(-c3cccnc3)n2)c(O)c1 as the molecule, how does the Potency read?
A: The Potency was inconclusive [cytotoxic, single point].

Q: With C=C1CCN([C@@H](CC(C)C)C(=O)NCc2ccc(Cl)c(Cl)c2)S(=O)(=O)c2ccccc21 as the molecule, how does the Potency read?
A: The Potency was inconclusive [cytotoxic, single point].

Q: For [O-]/C(=C(\C(=S)Nc1ccccc1F)[n+]1ccccc1)c1ccc(-c2ccccc2)cc1, which Potency is on record?
A: The Potency was inconclusive [cytotoxic, single point].
